These results are taken from article PMC13613228 (Journal of Biochemistry, 2026).

In general, stoichiometry N refers to a count of units in the complex or per binding partner.

B1: dephosphorylated human HRI lacking the C-terminal coiled-coil ([…]) (domain or fragment)
chain: not shown
B2: human HRI N-terminal domain ([…]) (domain or fragment)
chain: not shown
B3: human HRI lacking the C-terminal coiled-coil ([…]), phosphorylated form (domain or fragment)
chain: not shown
modifications: phosphorylated form (HRI expressed in E. coli is extensively phosphorylated); sites not mapped in this paper

This data set deals with the molecule itself. Briefly: AUC.
As for B1, the “stoichiometry N” value stood at 2.

Turning to B2, the “stoichiometry N” value was found to be 2.

As to B3, the “stoichiometry N” value was determined as 2.
